The campaign covered roughly 310,000 compounds. About 14,000 (4.5%) showed an effect of 50% or more. The effect is printed as a negative number. The list shows a part of the results.
What follows are compounds tested against human ether-à-go-go-related gene (hERG) potassium channel (human, UniProt Q12809) (assay: primary screen, population patch clamp on CHO cells stably expressing hERG).
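Note: peak tail current of the secondary pulse compared with the same well before compound.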

Chain of human ether-à-go-go-related gene (hERG) potassium channel (Q12809 whole entry, looked up): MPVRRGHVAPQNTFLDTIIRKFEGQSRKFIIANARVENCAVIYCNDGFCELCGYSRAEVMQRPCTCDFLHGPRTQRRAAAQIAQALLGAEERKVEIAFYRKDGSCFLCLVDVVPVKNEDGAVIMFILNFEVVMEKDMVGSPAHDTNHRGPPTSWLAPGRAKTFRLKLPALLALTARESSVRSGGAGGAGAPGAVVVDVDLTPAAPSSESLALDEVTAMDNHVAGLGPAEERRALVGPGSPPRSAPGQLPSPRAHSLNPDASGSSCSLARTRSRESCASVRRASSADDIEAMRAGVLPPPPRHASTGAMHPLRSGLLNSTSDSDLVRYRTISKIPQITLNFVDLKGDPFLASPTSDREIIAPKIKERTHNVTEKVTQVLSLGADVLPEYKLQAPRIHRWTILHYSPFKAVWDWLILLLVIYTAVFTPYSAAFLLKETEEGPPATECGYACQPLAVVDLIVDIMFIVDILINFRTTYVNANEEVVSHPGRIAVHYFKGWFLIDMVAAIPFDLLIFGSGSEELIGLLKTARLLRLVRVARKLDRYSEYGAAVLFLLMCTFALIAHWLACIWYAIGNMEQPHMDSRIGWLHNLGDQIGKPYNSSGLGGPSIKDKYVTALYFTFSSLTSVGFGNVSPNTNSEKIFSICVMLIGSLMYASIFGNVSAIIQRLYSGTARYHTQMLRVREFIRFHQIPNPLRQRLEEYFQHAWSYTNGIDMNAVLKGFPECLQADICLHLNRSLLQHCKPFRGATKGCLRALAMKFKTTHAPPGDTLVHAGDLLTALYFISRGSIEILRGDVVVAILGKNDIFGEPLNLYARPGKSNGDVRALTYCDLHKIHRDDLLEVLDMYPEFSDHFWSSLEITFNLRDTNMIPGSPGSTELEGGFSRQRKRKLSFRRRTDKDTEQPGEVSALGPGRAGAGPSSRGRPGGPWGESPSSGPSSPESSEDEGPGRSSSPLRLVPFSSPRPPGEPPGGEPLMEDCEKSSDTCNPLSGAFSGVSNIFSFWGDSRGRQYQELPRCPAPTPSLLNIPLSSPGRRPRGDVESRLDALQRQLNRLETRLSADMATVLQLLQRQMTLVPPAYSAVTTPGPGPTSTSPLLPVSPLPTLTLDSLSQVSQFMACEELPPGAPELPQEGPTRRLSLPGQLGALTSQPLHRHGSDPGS

Row | SMILES | hERG current change (%, negative = inhibition) at 10uM
1 | CSc1nc(N2CCOCC2)nc2ccc(C)cc12 | 2.43%
2 | CN1C(C(=O)NCc2cccc(C(F)(F)F)c2)CC2Cn3c(nc4ccccc43)C21 (stereo not shown) | -47.4%
3 | O=C(COc1ccccc1)N/N=C/c1cc2c(cc1[N+](=O)[O-])OCO2 | -21.3%
4 | Cc1ccc(CNC(=O)C2CCC(CNc3c(N4CCC(C)CC4)c(=O)c3=O)CC2)cc1 (stereo not shown) | 1.97%
5 | O=C(CN1CCN(CC(=O)c2ccc(F)cc2)CC1)Nc1ccccc1Cl | -68.9%
6 | O=C(O)/C=C\C(=O)NCc1ccccc1 | 15.4%
7 | COC(=O)c1cc(C)sc1NC(=O)C1CC=CCC1C(=O)O (stereo not shown) | -4.51%
8 | Cc1ccc(C2=NN3C(=O)c4ccccc4C3C2)cc1 (stereo not shown) | -22.4%
9 | CCOCCc1nnc(NC(=O)CS(=O)(=O)c2ccc(C)cc2)s1 | -21.5%
10 | CCOP(=O)(OCC)C(NC(=O)c1ccc(OC)cc1)c1ccccc1 (stereo not shown) | 14.2%
11 | CCC(=O)Oc1ccc(NC(=O)c2ccco2)cc1 | -5.67%
12 | Cc1cc(C)n(C(=O)c2ccc(C)o2)n1 | -0.589%
13 | O=S(=O)(c1cccs1)N1CN(Cc2ccco2)c2nc3ccccc3nc21 | -21.9%
14 | CN(C)S(=O)(=O)c1cccc(NC(=O)c2cc(=O)[nH]c(=O)[nH]2)c1 | 28.1%
15 | CNCC(O)Cn1c2c(c3ccccc31)CCCC2 (stereo not shown) | -16.6%
16 | S=c1[nH]nc(COc2ccc(Cl)cc2)n1Cc1ccccc1 | 5.79%
17 | COc1cccc(NC(=O)C(OC(=O)/C=C/c2ccc3c(c2)OCO3)c2ccccc2)c1 (stereo not shown) | -4.56%
18 | COC(=O)Cn1c(-c2ccc(OC)cc2)c(-c2ccc(OC)cc2)nnc1=O | 2.38%
19 | O=C(O)c1cccc2c1C(=O)N(Cc1ccncc1)C2 | 18.7%
20 | Cc1ccc(NC(=O)C2C3CC4OC(=O)C2C4C3)cc1Cl (stereo not shown) | 3.85%
21 | C/C(CC(=O)Nc1cccc(Cl)c1Cl)=N\NC(=O)c1ccccc1N | 14.7%
22 | COC(=O)C(Oc1ccc2c(-c3ccc(OC)cc3)cc(=O)oc2c1)c1ccccc1 (stereo not shown) | 6.15%

Row | SMILES | hERG current change (%, negative = inhibition) at 10uM
23 | Oc1c(I)cc(I)c2cccnc12 | -18%
24 | Cc1cccc(/N=C/c2c(O)cc(C)oc2=O)n1 | 11.7%
25 | Cc1cccc(N(CC(=O)NC(C)C)C(=O)CCC(=O)Nc2ccccn2)c1 | 1.23%
26 | Oc1ccc2n[nH]nc2c1 | 14.8%
27 | COc1cccc(N2CCN(S(=O)(=O)c3ccc4c(c3)CC(C)N4C(=O)C3CC3)CC2)c1 (stereo not shown) | 17.8%
28 | Cn1c(NC(=O)c2ccccc2F)c(-c2cccs2)c(=O)c2ccccc21 | -0.0867%
29 | CCC(=O)NC(=S)Nc1ccc(NC(=O)CC)cc1 | 6.81%
30 | Cc1cc(C)nc(NC(=NCc2ccc3c(c2)OCO3)NC(=O)Nc2ccccc2)n1 | -4.02%
31 | Cn1c(SCC(=O)Nc2ccccc2Br)nnc1-c1cnccn1 | 4.4%
32 | Cc1ccc(NC(=O)C(C)Sc2n[nH]c(CNc3ccccc3)n2)cc1 (stereo not shown) | 12.3%
33 | CC1(C)Cc2c(sc3nc(SCC(=O)NCc4ccco4)n(-c4ccccc4)c(=O)c23)CS1 | 15.7%
34 | COc1ccc(S(=O)(=O)CC(=O)Nc2nnc(C(F)(F)F)s2)cc1 | -1.35%
35 | Cc1cc(N2CCN(C)CC2)nc2ccc(NC(=S)NCCN3CCc4ccccc4C3)cc12 | -23.7%
36 | CC(C)(C)NC(=O)C(Cc1ccccc1)NS(=O)(=O)c1cccc2nsnc12 (stereo not shown) | -1.39%
37 | Cc1cc(OC(=O)c2ccccc2Br)c([N+](=O)[O-])c(=O)[nH]1 | 16.7%
38 | O=C(COC(=O)c1cccnc1)Nc1cccc(Cl)c1 | 9.52%
39 | CCOC(=O)c1ccc(-c2ccc(/C=N/NC(=O)CN(c3ccccc3Br)S(C)(=O)=O)o2)cc1 | 15.9%
40 | CNc1nc(SCc2ccccc2Cl)nc2c1CCCC2 | 6.51%
41 | CSc1ccc(C2C(C#N)=C(N)Oc3c2ccc(=O)c2c(C)oc(C)c32)cc1 (stereo not shown) | 13.4%
42 | Cc1ccc(C(=O)Cc2nc3ccccc3[nH]2)cc1 | 2.85%
43 | CNS(=O)(=O)c1cnccc1N1CCN(C)CC1 | 20.1%
44 | Cc1cc(NC(=O)CSc2nc(Cc3ccccc3)c(C)[nH]2)no1 | 6.8%

Row | SMILES | hERG current change (%, negative = inhibition) at 10uM
45 | O=C(COC(=O)Cc1ccc(F)cc1)Nc1ccc(Cl)cn1 | 10%
46 | C[C@H](NC(=O)c1nc[nH]c1C(=O)NC1CCN(C(=O)OC(C)(C)C)CC1)C(=O)OC(C)(C)C | 2.98%
47 | O=C(CCC1CCCN(C(=O)C2=CCCC2)C1)N1CCN(c2ccccn2)CC1 (stereo not shown) | 5.83%
48 | Cc1ccc(NC(=O)C2Cc3ccccc3O/C2=N\O)cc1C (stereo not shown) | 15.1%
49 | Cc1ccsc1C(=O)N1CCN(c2ncc(C(F)(F)F)cc2Cl)CC1 | -21%
50 | Cc1ccc(OCCn2c(=O)oc3ccc(C)cc32)cc1 | 14.1%
51 | Cc1cc(NC(=O)c2ccoc2C)ccc1Br | -31.8%
52 | CCCCOC(=O)Cn1c(=N)n(CCC)c2ccccc21.Cl | -31.5%
53 | COc1ccc(CC2(C)OC(c3ccc(C)c([N+](=O)[O-])c3)=NN2C(C)=O)cc1 (stereo not shown) | 8.44%
54 | CCOC(=O)C1CCN(C2CC(=O)N(c3ccc(OCC)cc3)C2=O)CC1 (stereo not shown) | -34.4%
55 | COc1cc(NC(=O)c2cc(-c3ccco3)on2)cc(OC)c1OC | -2.28%
56 | COc1ccc(-c2ccc([C@H]3[C@H]4C=CC[C@@H](C)[C@@H]4C(=O)N3Cc3ccccc3)c(F)c2)cc1C | 10%
57 | O=C(N/N=C/c1cccc(F)c1)c1c(O)c2c([nH]c1=O)CCCC2 | -9.58%
58 | CN(C)S(=O)(=O)c1ccc2oc(SCC(=O)c3c(N)n(C4CC4)c(=O)[nH]c3=O)nc2c1 | 14.3%
59 | CCOC(=O)N1CCN(C(=O)c2ccc(C#CC3(O)CCCCC3)cc2)CC1 | -7.86%
60 | CC[C@]1(O)C[C@@H]2CN(CCc3c([nH]c4ccccc34)[C@@](C(=O)OC)(c3cc4c(cc3OC)N(C=O)[C@H]3[C@@](O)(C(=O)OC)[C@H](OC(C)=O)[C@]5(CC)C=CCN6CC[C@]43[C@@H]65)C2)C1.O=S(=O)(O)O | 22%
61 | O=C(COC(=O)CCC1CCCCC1)Nc1ccc(OC(F)F)cc1 | 3.35%
62 | COC(=O)CSC1=C(C#N)C(c2ccc(C)cc2)C2=C(CCCC2=O)N1 (stereo not shown) | -10.5%
63 | Cc1nc2nc(C)c(CCC(=O)NCCCN3CCN(c4cccc(Cl)c4)CC3)c(C)n2n1 | 5.45%
64 | CC1(C)CC(=O)C2=C(C1)OC(N)=C([N+](=O)[O-])C2c1cccs1 (stereo not shown) | 4.29%
65 | O=S(=O)(c1ccc(F)cc1)N1CCN(c2ccccc2)CC1 | -6.53%
66 | CCN1CCC(N2CCN(c3ccc(F)cc3)CC2)CC1 | -5.34%

Row | SMILES | hERG current change (%, negative = inhibition) at 10uM
67 | CCN(Cc1cc2cc(C)ccc2[nH]c1=O)S(=O)(=O)c1ccccc1 | -5.18%
68 | COc1ccc(C2c3sc(=O)[nH]c3SC3C4CCC(C4)C23)cc1 (stereo not shown) | 4.8%
69 | Cc1cc(NC(=O)c2c(F)c(F)c(F)c(F)c2F)no1 | -7.71%
70 | O=C(CSc1cccc2cccnc12)N/N=C/c1ccc(F)cc1 | 4.25%
71 | CCc1ccc(-c2nn(Cc3ccccc3)cc2C(=O)NCC2CCCO2)cc1 (stereo not shown) | -16.3%
72 | Cc1ccc(S(=O)(=O)CC(=O)c2ccccc2)cc1 | -3.71%
73 | CCCc1cc(=O)[nH]c(SCc2cc(Cl)ccc2OC(F)F)n1 | -8.42%
74 | O=C1C2CC=CCC2C(=O)N1Nc1ccccc1 (stereo not shown) | 12.7%
75 | CCOn1c(-n2nc(C)cc2C)nc2ccccc2c1=O | 12%
76 | O=c1oc2ccccc2c(Nc2ccc(O)cc2)c1[N+](=O)[O-] | -6.48%
77 | O=C(NCCO)C1(c2ccc(Cl)cc2)CCCC1 | 1.22%
78 | CCOc1ccc(NC(=O)CN(C)C(=O)Cc2ccsc2)cc1OCC | -11.2%
79 | Cc1cc(NC(=O)c2c(Br)c(C)nn2C)no1 | 3.64%
80 | O=C(c1cc2ccccc2oc1=O)N1CCCCCCC1 | 5.11%
81 | CCn1cc(C(=O)NCc2ccco2)c(=O)c2cc(S(=O)(=O)N3CCc4ccccc4C3)ccc21 | -15.3%
82 | CCOc1ccccc1NC(=O)C1C2CCC(O2)C1C(=O)O (stereo not shown) | 12.3%
83 | O=C(CNC(=S)NC(=O)c1cccc([N+](=O)[O-])c1)c1ccccc1 | -0.433%
84 | CC(C)CNC(=O)C(=O)NCC(c1ccc2c(c1)OCO2)N1CCOCC1 (stereo not shown) | 6.81%
85 | OCCNCC(O)CN1c2ccccc2Sc2ccccc21 (stereo not shown) | -9.14%
86 | CCOC(=O)CNC(=O)CSc1nnc(-c2ccco2)n1Cc1ccco1 | 10.4%
87 | Cc1ccc(N2CCN(C(=S)c3ccc(-c4ccccc4[N+](=O)[O-])o3)CC2)cc1 | 19.8%
88 | CCC1=C(OC(=O)N(CC)CC)N2C(=O)OC(=NCCc3c[nH]c4ccccc34)[C@]2(Cc2ccccc2)[C@H]2C1=CC[C@H]1C(=O)N(c3ccccc3)C(=O)[C@H]12 | 8.56%

— PMC4336329 (PLoS ONE, 2015)
